Measured values reported in article PMC4336329 (PLoS ONE, 2015).
In all, about 310,000 compounds went through this assay and about 14,000 (4.5%) showed an effect of 50% or more. Effects have a minus sign here. This is one part of the list.

target: human ether-à-go-go-related gene (hERG) potassium channel (human, UniProt Q12809); test: primary screen, population patch clamp on CHO cells stably expressing hERG
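Further: peak tail current of the secondary pulse compared with the same well before compound.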

human ether-à-go-go-related gene (hERG) potassium channel, sequence (Q12809 whole entry, looked up): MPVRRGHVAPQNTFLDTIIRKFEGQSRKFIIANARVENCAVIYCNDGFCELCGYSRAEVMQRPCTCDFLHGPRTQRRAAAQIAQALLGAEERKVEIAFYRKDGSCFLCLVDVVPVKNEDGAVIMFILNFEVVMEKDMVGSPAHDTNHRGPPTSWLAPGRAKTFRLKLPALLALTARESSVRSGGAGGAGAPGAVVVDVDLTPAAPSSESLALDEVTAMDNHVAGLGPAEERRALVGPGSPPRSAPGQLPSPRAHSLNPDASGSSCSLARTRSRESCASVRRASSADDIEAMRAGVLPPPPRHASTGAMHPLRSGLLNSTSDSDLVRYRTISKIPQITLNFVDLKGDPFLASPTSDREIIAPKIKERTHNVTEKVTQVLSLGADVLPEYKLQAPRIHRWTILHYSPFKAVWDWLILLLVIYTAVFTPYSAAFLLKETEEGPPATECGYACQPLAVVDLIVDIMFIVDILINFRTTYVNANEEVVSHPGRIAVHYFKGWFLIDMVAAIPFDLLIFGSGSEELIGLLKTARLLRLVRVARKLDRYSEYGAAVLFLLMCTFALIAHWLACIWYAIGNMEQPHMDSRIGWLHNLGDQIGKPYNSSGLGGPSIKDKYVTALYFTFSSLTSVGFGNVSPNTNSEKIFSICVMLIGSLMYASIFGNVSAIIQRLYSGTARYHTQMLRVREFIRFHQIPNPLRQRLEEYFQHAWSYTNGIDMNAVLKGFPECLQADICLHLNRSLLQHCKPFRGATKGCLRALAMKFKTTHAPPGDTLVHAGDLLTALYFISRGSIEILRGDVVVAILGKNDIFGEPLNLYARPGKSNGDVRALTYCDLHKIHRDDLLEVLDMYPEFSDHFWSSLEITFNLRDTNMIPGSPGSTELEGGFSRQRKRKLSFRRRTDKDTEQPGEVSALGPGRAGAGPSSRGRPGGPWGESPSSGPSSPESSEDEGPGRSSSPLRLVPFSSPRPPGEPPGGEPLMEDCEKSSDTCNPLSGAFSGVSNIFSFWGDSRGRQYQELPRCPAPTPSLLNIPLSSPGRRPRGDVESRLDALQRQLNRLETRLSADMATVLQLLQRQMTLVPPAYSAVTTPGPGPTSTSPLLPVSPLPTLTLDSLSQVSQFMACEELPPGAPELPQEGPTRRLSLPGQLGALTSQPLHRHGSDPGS

| SMILES | hERG current change (%, negative = inhibition) at 10uM |
| --- | --- |
| O=c1ncn(-c2cccc([N+](=O)[O-])c2)c2ccccc12 | -15.6% |
| CC(NC(=O)C1CCN(S(=O)(=O)c2ccc3c(c2)NC(=O)CO3)CC1)c1ccccc1 (stereo not shown) | -7.39% |
| COc1ccc(OCC(=O)NNC(=O)c2cccs2)cc1 | 11.4% |
| CC(/C=N/n1c(COc2ccccc2)n[nH]c1=S)=C\c1ccccc1 | 14.7% |
| O=C(CS(=O)(=O)c1cn(Cc2ccc(Cl)cc2)c2ccccc12)N1CCCC1 | -40.5% |
| CCN1CCN(C(=S)Nc2cc(S(=O)(=O)N(CC)CC)ccc2C)CC1 | -4.25% |
| CC(C(=O)NCC(=O)Nc1ccc(F)c(F)c1F)N1CCN(c2ccc(O)cc2)CC1 (stereo not shown) | -6.1% |
| C/C=C/c1ccc(OCC(=O)O)c(OC)c1 | 12.4% |
| C=C(C)Cn1c(SCC)nc2ccccc2c1=O | 3.13% |
| COc1ccc(-c2cc(C(=O)N3CCCC3)c3ccccc3n2)cc1OC | 5.86% |
| COc1cccc(Nc2ncnc3sccc23)c1 | 11.4% |
| O=C(COc1ccccc1)NC(NC(=S)Nc1ccccc1O)C(Cl)(Cl)Cl (stereo not shown) | 2.52% |
| Cc1nc(-c2ccccc2)sc1C1(C)CC(c2cccc(F)c2)=NO1 (stereo not shown) | 13.4% |
| CCOc1cc(C(C#N)N2CCOCC2)ccc1OC (stereo not shown) | 8.94% |
| Cc1nc2sc3c(c2c(=O)[nH]1)CCCCC3 | 2.03% |
| Cc1ccc(CNC(=O)c2ccc3c(=O)n(CC4CCCO4)c(=S)[nH]c3c2)cc1 (stereo not shown) | -9.6% |
| O=C(CSc1nnc(-c2ccc(O)cc2)n1Cc1ccco1)c1ccccc1 | -17.5% |
| Cc1ccc(CN(CC(=O)NCCc2ccccc2)C(=O)CCCC(=O)Nc2cc(C)on2)cc1 | -38.2% |
| CC1=C(C(N)=O)C(c2ccccn2)n2nc(SCc3ccccc3)nc2N1 (stereo not shown) | -11.9% |
| COc1cc(NC(=O)NCC2CCN(Cc3ccccc3C)CC2)cc(OC)c1OC | -2.71% |
| CCOC(=O)Cn1c(-c2ccccc2)nc2ccccc2c1=O | -2.89% |
| Cc1cccc(NC(=O)c2cc(S(=O)(=O)N3CCCC3)cn2C)c1 | 17.2% |
| Cc1nn(-c2ccccc2)c2c1C(c1ccc([N+](=O)[O-])cc1)N1C(=N2)C(=O)Nc2ccccc21 (stereo not shown) | -28.4% |

| SMILES | hERG current change (%, negative = inhibition) at 10uM |
| --- | --- |
| CCOc1ncccc1C(=O)Nc1ccc(F)c(F)c1 | -7.94% |
| Cc1ccsc1C(=O)N1CCC(CO)(Cc2ccccc2)CC1 | 17.6% |
| O=C(CSc1nnc2ccccn12)NCc1ccco1 | 22.3% |
| Cc1ccc(C(=O)NCc2ccc(N3CCN(C)CC3)cc2)cc1C | -21.7% |
| COc1cc(OC)cc(-n2nnnc2SCC(=O)N2CCCC2)c1 | -30.2% |
| C=CCn1cccc(C(=O)Nc2ccc(OC)cc2OC)c1=O | 8.74% |
| CN(CC1CCCO1)S(=O)(=O)c1ccc(C(=O)Nc2nc3cc4c(cc3s2)OCO4)cc1 (stereo not shown) | 9.81% |
| N#C/C(=C\c1ccccc1)C(=O)N1CCN(c2ccccc2F)CC1 | -1.17% |
| O=C(Cn1nnc(-c2cccc(C(F)(F)F)c2)n1)N1CCOCC1 | -8.77% |
| CN(C)c1ccc(/C=N/NC(=S)NCc2ccco2)cc1 | -6.25% |
| CCOc1cccc2cc(C(=O)NCc3ccc(C)cc3)c(=N)oc12 | 10.5% |
| CCc1ccc(OCC2c3cc(OC)c(OC)cc3CCN2C(=S)NCCOC)cc1 (stereo not shown) | -1.52% |
| CC(C)NC(=O)CCCn1c(=S)[nH]c2cc3c(cc2c1=O)OCO3 | 2.04% |
| CC(C)CNC(=O)COc1ccc2c3c(c(=O)oc2c1)CCC3 | -13.7% |
| O=C(O/N=C(\c1ccccc1)c1ccncc1)c1ccccc1F | 11.2% |
| Cc1ccc(S(=O)(=O)N(C)CCCC(=O)Nc2ccccn2)cc1 | -9.42% |
| CCN(Cc1ccncc1)Cc1cn[nH]c1-c1ccc(OC)cc1F | -3.13% |
| CCOC(=O)c1ccccc1NC(=S)N1CCN(C(=O)c2ccco2)CC1 | 22.1% |
| Cc1cccc(C)c1NC(=O)CNC(=O)c1c(C)nn(C)c1Cl | 19.9% |
| COCCCn1cn[nH]c1=S | 27.2% |
| COc1ccccc1NC(=S)NCc1ccccn1 | 1.54% |
| Cc1cc(OCC(=O)N2CCCC2)ccc1Cl | -0.71% |
| c1ccc2c(c1)ncn2CCCOc1ccc2c(c1)CCC2 | -38.6% |

| SMILES | hERG current change (%, negative = inhibition) at 10uM |
| --- | --- |
| CCCCN1CC(=O)N2[C@H]3c4cc(C)ccc4OC[C@@H]3[C@H](C(=O)OCC)[C@]2(C)C1=O | 1.47% |
| COc1ccc(-c2cc(C(=O)NCCN3CCOCC3)no2)cc1OC | 18.9% |
| Cc1occc1C(=O)N/N=C/C1=C(N2CCOCC2)C(=C\c2ccc(Cl)cc2Cl)/CC1 | 27.6% |
| O=C1CCCc2ccccc2N1Cc1cccc(Cl)c1 | -16.3% |
| Fc1ccc(-[n+]2nc(Nc3ccccc3)sc2-c2ccc(OCc3ccccc3)cc2)cc1.[Cl-] | -20.5% |
| Clc1ccc(OCCn2cnc3ccccc32)cc1 | -21.5% |
| C/C(=N/NC(=O)CNC(=O)/C=C/c1ccccc1)c1ccco1 | 2.78% |
| COc1cc(/C=C2/SC(=S)N(CC3CCCO3)C2=O)ccc1O (stereo not shown) | -5.04% |
| O=C(Cn1cc(C(=O)C(F)(F)F)c2ccccc21)N1CCOCC1 | 16.6% |
| COc1ccc(Nc2nc(N)nc(CSc3nccn3C)n2)cc1 | 4.64% |
| Cc1ccc(-c2noc(C3CCN(C(=O)Nc4ccc(C#N)cc4)CC3)n2)o1 | -49% |
| CC(=O)Nc1cccc(NC(C)=O)n1 | 19.6% |
| Cc1nc(SCC(=O)NCCc2ccccc2)n[nH]1 | 3.66% |
| COCCN(C(=S)Nc1cc(C)cc(C)c1)C(C)c1cccnc1 (stereo not shown) | -58.4% |
| CCCCCCn1c(=O)c(C(=O)Nc2nc(CC(=O)OCC)cs2)c(O)c2ccccc21 | 8.83% |
| CC1CCCN(C(=O)C2CCC(CNc3c(N4CCCCC4)c(=O)c3=O)CC2)C1 (stereo not shown) | -8.22% |
| CCCCn1c(=O)[nH]c2ccccc21 | -0.955% |
| COc1ccc(NC(=O)COc2ccccc2F)cc1S(=O)(=O)N1CCCCC1 | 6.02% |
| O=C(NC1CCS(=O)(=O)C1)c1cnccn1 (stereo not shown) | 26.5% |
| COc1ccc(CCN(Cc2nc3ccccc3c(=O)[nH]2)C(=O)C2CC2)cc1 | -13.4% |
| Cc1cccc(N2CC(C(=O)Nc3ccc(S(=O)(=O)NCC4CCCO4)cc3)CC2=O)c1C (stereo not shown) | 16.6% |
| CCOC(=O)c1cnc(/N=C/N(C)C)s1 | 11.9% |
| Cc1ccc(NC(=O)c2cc(-c3ccco3)nc3ccccc23)cc1S(=O)(=O)N1CCOCC1 | 10.9% |

| SMILES | hERG current change (%, negative = inhibition) at 10uM |
| --- | --- |
| CC1CC(C)CN(S(=O)(=O)c2ccc3c(c2)CCN3C(=O)C2CC2)C1 (stereo not shown) | 3.08% |
| O=C(COC(=O)C1CCN(c2ccc(C(F)(F)F)cn2)CC1)Nc1ccc(F)cc1[N+](=O)[O-] | 13% |
| COc1ccc2cnnc(SCC(=O)Nc3ccccc3)c2c1OC | -19.7% |
| O=C(Nc1ccc(Cl)c(Cl)c1)c1ccco1 | 3.48% |
| O=C(O)CN(Cc1ccccc1)S(=O)(=O)c1ccc(F)cc1 | 2.09% |
| On1c(-c2ccccc2Cl)nc2ncccc21 | 17.4% |
| COc1ccc(-c2nc3cnccn3c2NCc2ccccc2)cc1SC1CCCCC1.O=C(O)C(F)(F)F | 2.68% |
| O=C1CSCC(=O)N1c1ncc(C(F)(F)F)cc1Cl | 10.7% |
| O=C(NCCNc1ccc([N+](=O)[O-])cc1C(F)(F)F)c1ccc(F)cc1 | -14.1% |
| Cc1ccc(C(=O)NC2CC(C)(C)NC(C)(C)C2)c(C)c1 | 5.08% |
| Cc1ccc(SCc2noc(-c3c(C)noc3C)n2)cc1 | -22.2% |
| Cc1c(C)n(C)c2ccc(C(=O)NCCCN3CCN(c4ccc(F)cc4)CC3)cc12 | -66.6% |
| CC1CCCCN1CCNC(=O)C1CCN(S(=O)(=O)N2CCCCC2)CC1 (stereo not shown) | 2.23% |
| O=C(/C=C/c1ccccc1Cl)c1ccc(O)cc1 | 21.3% |
| CCC(=O)Nc1cccc(NC(=O)c2ccccc2Br)c1 | 2.27% |
| CCOc1ccc(NC(=O)C2CC(=O)NC(N3CCc4ccccc43)=N2)cc1 (stereo not shown) | 6.43% |
| CCCC(=O)Nc1ccc(NC(=O)c2ccccc2Cl)nc1 | 1.02% |
| O=C(CSc1nccn1Cc1ccco1)Nc1ccccc1 | 4.6% |
| Cc1cc(Nc2cccc(Cl)c2Cl)n2ncnc2n1 | 1.85% |
| Cc1ccc(-c2csc(NC(=O)C3CSC4(C)CCC(=O)N34)n2)cc1 (stereo not shown) | 32.3% |
| COc1ccc(N2C(=NC(=O)C3CCCO3)SC3CS(=O)(=O)CC32)cc1 (stereo not shown) | 5.78% |
| CCOc1ccc(-n2c(=S)sc3c(=O)n(-c4ccccc4)c(SC)nc32)cc1 | 27% |
